{
  "source": "PubChem BioAssay AID485294",
  "about": "(National Center for Advancing Translational Sciences (NCATS), 2010)",
  "note": "“And” between values parts separate entries of the source, which are not always exact repeats. Equal values may be shown once. About 150 (0.041%) of roughly 370,000 compounds were called active. This list was built around the results that the source calls inconclusive (neither active nor inactive); the mix of calls is not that of the screen. The call rests on the fitted dose curve; in most records, active means well fitted inhibition curve with a large enough effect; inconclusive means small, poorly fitted or top-dose-only effect; inactive means flat fitted curve, though single readings scatter. Potencies of inconclusive entries are doubtful fits and often do not repeat. Potency means the concentration at half of the fitted maximal effect; tags describe the fitted curve by direction and shape.",
  "data": [
    {"target": "Beta-lactamase (Escherichia coli (strain K12)) (UniProt P00811)", "sequence (P00811 whole entry, looked up)": "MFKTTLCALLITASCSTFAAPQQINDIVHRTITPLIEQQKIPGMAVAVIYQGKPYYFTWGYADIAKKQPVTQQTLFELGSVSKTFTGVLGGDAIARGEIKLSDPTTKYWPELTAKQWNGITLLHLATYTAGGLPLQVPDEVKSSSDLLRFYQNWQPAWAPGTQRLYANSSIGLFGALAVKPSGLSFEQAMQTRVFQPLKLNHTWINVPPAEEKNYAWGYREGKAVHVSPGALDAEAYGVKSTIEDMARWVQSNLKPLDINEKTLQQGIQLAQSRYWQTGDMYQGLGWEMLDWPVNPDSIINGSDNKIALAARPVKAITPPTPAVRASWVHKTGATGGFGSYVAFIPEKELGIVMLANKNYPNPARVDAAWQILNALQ", "test": "qHTS Inhibitors of AmpC Beta-Lactamase (assay with detergent); further: nearly all actives have a fitted effect of over 25% in size;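 on activity change, negative = inhibition: 0% = no-compound wells and -100% = no-enzyme wells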", "details": "AmpC hydrolysis of nitrocefin, absorbance 480 nm, 0.01% Triton; activity change, negative = inhibition: at 114 µM (top of the series)", "how_it_was_run": "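20 mM phosphate pH 7.0 + 0.01% (detergent screen) or 0.0001% Triton X-100; 5.3 nM AmpC reagent; cpd preinc 15 min RT; nitrocefin (800 uM stock) to start; A480 q20 s × 4 min; Activity was normalised to no-enzyme and no-compound control wells.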", "values": [
      {"smiles": "Cc1ccc(OCC(=O)N(Cc2ccccc2)c2ccccn2)cc1", "activity change, negative = inhibition": "inactive: -2.87%"},
      {"smiles": "Cc1c(C(=O)N(C)c2ccc(Cl)cc2)cnn1-c1ccccc1", "Potency": "inconclusive: 0.631 µM [inhibitor, full curve, poor fit]"},
      {"smiles": "CCC(C)NC(=O)CO/N=C/c1ccccc1OC(F)F", "note": "(stereo unspecified)", "Potency": "inconclusive: 89.1 µM [inhibitor, single point]"},
      {"smiles": "COc1ccc([N+](=O)[O-])cc1NC(=O)Cc1noc2ccc(C)cc12", "Potency": "inconclusive: 0.708 µM [inhibitor, full curve, poor fit]"},
      {"smiles": "O=[N+]([O-])c1cccnc1N1CCN(c2ccc(F)cc2)CC1", "Potency": "inconclusive: 3.16 µM [inhibitor, full curve, poor fit]"},
      {"smiles": "COc1cccc(C2C3(C#N)C(N)=NC(OC)(OC)C23C#N)c1", "note": "(stereo unspecified)", "Potency": "inconclusive: 3.55 µM [inhibitor, full curve]"},
      {"smiles": "Cc1ccccc1N1C(=O)CC(N2CCC(C(N)=O)CC2)C1=O", "note": "(stereo unspecified)", "Potency": "inconclusive: 0.794 µM [inhibitor, full curve, poor fit]"},
      {"smiles": "N#CCCn1c(C(C#N)(CCC#N)CCC#N)nc2ccccc21", "Potency": "inconclusive: 1.78 µM [inhibitor, full curve]"},
      {"smiles": "N#Cc1c2n(c(=S)n(-c3ccccc3)c1=O)CCCCC2", "activity change, negative = inhibition": "inactive: -20%"},
      {"smiles": "O=c1c2[nH]c3ccc(F)cc3c2ncn1CCN1CCN(Cc2ccccc2)CC1", "Potency": "inconclusive: 4.47 µM [inhibitor, full curve]"},
      {"smiles": "COC(=O)c1ccc(C2CC(=O)Nc3c2c(C)nn3-c2nc(C)cc(C)n2)cc1", "note": "(stereo unspecified)", "activity change, negative = inhibition": "inactive: -2.48%"},
      {"smiles": "CCCCn1c(N)c(N(CCOC)C(=O)COC(=O)COc2cccc(C(C)=O)c2)c(=O)[nH]c1=O", "Potency": "inconclusive: 89.1 µM [inhibitor, single point]"},
      {"smiles": "Nc1cccc(-c2nc3ccc(C(=O)c4ccccc4)cc3[nH]2)c1", "Potency": "inconclusive: 0.562 µM [inhibitor, full curve, poor fit]"},
      {"smiles": "CCCC(=O)Nc1cccc(NC(=O)CN2CCN(c3ccccc3OC)CC2)c1", "Potency": "inconclusive: 15.8 µM [inhibitor, partial curve]"},
      {"smiles": "CC1CCCCN1C(=O)CSc1nc2ccccc2nc1Cc1ccccc1", "note": "(stereo unspecified)", "activity change, negative = inhibition": "inactive: 3.73%"},
      {"smiles": "COc1ccc(SN=C2C(C)=CC(=O)C=C2C)cc1", "Potency": "inconclusive: 31.6 µM [inhibitor, full curve, poor fit]"},
      {"smiles": "CCC(=O)Nc1nnc(-c2ccco2)o1", "Potency": "inconclusive: 35.5 µM [inhibitor, full curve]"},
      {"smiles": "O=C(COC(=O)c1ccccc1F)NC1CC1", "Potency": "inconclusive: 0.631 µM [inhibitor, full curve, poor fit]"},
      {"smiles": "COC(=O)c1ccc(CN2[C@H](C(=O)OC)C[C@@]3(O)[C@H](O)[C@H](O)[C@H](O)C[C@@H]23)cc1", "activity change, negative = inhibition": "inactive: -1.84%"},
      {"smiles": "NS(=O)(=O)OCC(Cc1ccccc1)N1C(=O)c2ccccc2C1=O", "note": "(stereo unspecified)", "Potency": "inconclusive: 1.58 µM [inhibitor, full curve, poor fit]"},
      {"smiles": "COc1ccc2nc(NC(=O)C3=NN(c4ccccc4)C(=O)CC3)sc2c1", "Potency": "inconclusive: 3.98 µM [inhibitor, full curve, poor fit]"},
      {"smiles": "O=C(Nc1ccc2c(c1)OCO2)c1ccc([N+](=O)[O-])cc1[N+](=O)[O-]", "Potency": "inconclusive: 3.16 µM [inhibitor, full curve, poor fit]"},
      {"smiles": "O=C(OC1CCOC1=O)c1cncc(Br)c1", "note": "(stereo unspecified)", "Potency": "inconclusive: 31.6 µM [inhibitor, full curve, poor fit]"},
      {"smiles": "CCc1ccccc1NC(=S)N(CCCN1CCOCC1)Cc1ccccn1", "Potency": "inconclusive: 89.1 µM [inhibitor, partial curve, poor fit]"},
      {"smiles": "Cc1c(C(=O)Nc2ccc(Br)cc2F)oc2ccc(S(=O)(=O)N3CCCCC3)cc12", "activity change, negative = inhibition": "inactive: 8.65%"},
      {"smiles": "COC(=O)/C=C1/N/C(=N\\c2nc(C)cc(C)n2)N(c2ccccc2)C1=O", "Potency": "inconclusive: 1.26 µM [inhibitor, full curve, poor fit]"},
      {"smiles": "C=C(C)c1nc(N)nc(N)n1", "Potency": "inconclusive: 44.7 µM [inhibitor, single point]"},
      {"smiles": "O=C(CSCc1c(Cl)cccc1Cl)Nc1ccccc1-c1ccccc1", "Potency": "inconclusive: 0.631 µM [inhibitor, full curve, poor fit]"},
      {"smiles": "Cc1ccc(S(=O)(=O)Nc2cc(C(F)(F)F)ccc2N2CCOCC2)c(C)c1", "activity change, negative = inhibition": "inactive: -9.91%"},
      {"smiles": "Cc1onc(-c2c(Cl)cccc2Cl)c1C(=O)N(C)Cc1ccccc1", "Potency": "inconclusive: 112 µM [inhibitor, partial curve, poor fit]"},
      {"smiles": "COCC(C)OC(=O)/C(C#N)=C\\c1coc2ccc(C)cc2c1=O", "note": "(stereo unspecified)", "activity change, negative = inhibition": "inactive: -3.63%"},
      {"smiles": "CC(=O)c1ccc(NC(=O)CN(C)S(=O)(=O)c2cc3c(cc2C)NC(=O)CO3)cc1", "activity change, negative = inhibition": "inactive: 1.09%"},
      {"smiles": "COc1ccc(C(C)NC(=O)c2ccccc2Cl)cc1OC", "note": "(stereo unspecified)", "activity change, negative = inhibition": "inactive: 2.36%"},
      {"smiles": "CCCOc1ccc(Br)cc1CSC(=N)N", "Potency": "inconclusive: 2.51 µM [inhibitor, partial curve, poor fit]"},
      {"smiles": "CCSc1ccc([C@@H]2[C@@H]3C(=O)N(CC)C(=O)[C@@H]3[C@]3(C(=O)OC)CCCCN23)cc1OC", "Potency": "inconclusive: 3.98 µM [inhibitor, full curve, poor fit]"},
      {"smiles": "O=C(O)c1c(NC(=O)N2CCOCC2)sc2c1CCCC2", "activity change, negative = inhibition": "inactive: 0.768%"},
      {"smiles": "CC(C)CN(C(=O)COC(=O)c1ccc2ccccc2c1)c1c(N)n(Cc2ccccc2)c(=O)[nH]c1=O", "Potency": "inconclusive: 39.8 µM [inhibitor, full curve, poor fit]"},
      {"smiles": "CN1CCN(S(=O)(=O)c2ccc(NC(=S)NC(=O)c3ccccc3)cc2)CC1", "Potency": "inconclusive: 2.82 µM [inhibitor, full curve, poor fit]"},
      {"smiles": "Cc1ccccc1S(=O)(=O)Cc1ccc(C(=O)NC2CCCC2)o1", "Potency": "inconclusive: 5.01 µM [inhibitor, full curve, poor fit]"},
      {"smiles": "C=C(C)CNC(=O)c1ccc2nc(Cc3ccc(OC)cc3)oc2c1", "Potency": "inconclusive: 100 µM [inhibitor, partial curve, poor fit]"},
      {"smiles": "CCCCSP1(=S)NCCCN1", "Potency": "inconclusive: 5.01 µM [inhibitor, full curve, poor fit]"},
      {"smiles": "CCN(CC)c1ccc(NC(=O)COc2ccccc2C)cc1S(=O)(=O)Nc1ccccc1OC", "Potency": "inconclusive: 3.16 µM [inhibitor, full curve]"},
      {"smiles": "O=C(NC1CCCC1)c1ccc2nc(-c3ccco3)c(-c3ccco3)nc2c1", "activity change, negative = inhibition": "inactive: 2.23%"},
      {"smiles": "CCCc1nc2ccccc2c(=O)n1N", "activity change, negative = inhibition": "inactive: 1.02%"},
      {"smiles": "CC1CC2OC(=O)C3(C)CCCC(C)(C23)C1(O)CCc1ccoc1", "note": "(stereo unspecified)", "Potency": "inconclusive: 4.47 µM [inhibitor, single point]"},
      {"smiles": "COc1ccc(C(=O)N2CCCC(Nc3ccc(C)c(C)c3)C2)cc1", "note": "(stereo unspecified)", "activity change, negative = inhibition": "inactive: 5.78%"},
      {"smiles": "Cc1nc(SCC(=O)NCC(F)(F)F)c2c(-c3cccs3)csc2n1", "Potency": "inconclusive: 56.2 µM [inhibitor, partial curve]"},
      {"smiles": "CCOCCCNC(=O)C(c1ccc(OC)cc1)N(Cc1cccs1)C(=O)c1ccccc1O", "note": "(stereo unspecified)", "Potency": "inconclusive: 4.47 µM [inhibitor, single point] and inconclusive: 631 nM [inhibitor, full curve, poor fit]"},
      {"smiles": "CN(C)S(=O)(=O)N(CC(=O)Nc1ccc(F)c(F)c1)c1ccccc1", "activity change, negative = inhibition": "inactive: -1.62%"},
      {"smiles": "COc1ccc(CCNC(=O)CN2C(=O)CCSc3ccccc32)c(OC)c1", "Potency": "inconclusive: 100 µM [inhibitor, single point]"},
      {"smiles": "CCN(CC)C(=O)c1cc(Cl)ccc1NC(=O)c1ccco1", "Potency": "inconclusive: 44.7 µM [inhibitor, partial curve]"},
      {"smiles": "CCOc1ccccc1NC(=O)c1cccc2ccccc12", "Potency": "inconclusive: 1.12 µM [inhibitor, full curve, poor fit]"},
      {"smiles": "O=C(CN1CCOCC1)Nc1ccccc1Sc1ccc(Cl)cc1", "Potency": "inconclusive: 7.08 µM [inhibitor, full curve]"},
      {"smiles": "O=C(CCC1CCCC1)NNC(=O)c1ccccc1O", "Potency": "inconclusive: 79.4 µM [inhibitor, partial curve]"},
      {"smiles": "Cc1ccc(S(=O)(=O)CCc2nc3ccccc3[nH]2)cc1", "activity change, negative = inhibition": "inactive: -4.59%"},
      {"smiles": "COCCCNC(=O)COC(=O)c1ccc(-c2nc3ccccc3s2)s1", "Potency": "inconclusive: 2 µM [inhibitor, partial curve, poor fit]"},
      {"smiles": "CC(C)CCN1C(=O)CCC1(C)C(=O)NC1CCCCCCC1", "note": "(stereo unspecified)", "Potency": "inconclusive: 2.51 µM [inhibitor, full curve, poor fit]"},
      {"smiles": "Cc1ccc(CCNC(=O)c2ccc(CS(=O)(=O)c3ccc(Br)cc3)o2)cc1", "activity change, negative = inhibition": "inactive: -13.3%"},
      {"smiles": "CC(=O)c1cccc(OC(=O)c2cc(S(=O)(=O)N3CCOCC3)ccc2N2CCCC2)c1", "Potency": "inconclusive: 0.631 µM [inhibitor, full curve, poor fit]"},
      {"smiles": "Cc1cccc(-n2nnc(C(=O)NCc3ccccc3Cl)c2N)c1", "Potency": "inconclusive: 89.1 µM [inhibitor, single point]"},
      {"smiles": "O=C(Nc1nc2c(s1)CCc1ccccc1-2)c1ccco1", "Potency": "inconclusive: 0.631 µM [inhibitor, full curve, poor fit]"},
      {"smiles": "CN(C)c1cc[n+](CC(=O)N2CCCc3ccccc32)cc1", "Potency": "inconclusive: 2.82 µM [inhibitor, full curve]"},
      {"smiles": "Cc1nn(C)c(Oc2ccc(Cl)cc2)c1C(=O)Nc1ccc(F)cc1F", "activity change, negative = inhibition": "inactive: -0.221%"},
      {"smiles": "COc1cccc(CC(=O)OC(C)C(=O)Nc2ccc(N3CCOCC3)cc2)c1", "note": "(stereo unspecified)", "Potency": "inconclusive: 1 µM [inhibitor, full curve, poor fit]"},
      {"smiles": "COc1c(Cl)cc(Br)c(OC)c1C(=O)NC(=O)Nc1nc(C)cc(C)n1", "Potency": "inconclusive: 100 µM [inhibitor, single point]"},
      {"smiles": "CC1Oc2cc3c(-c4c(O)cc(O)c5c(O)c6c(cc45)OC(C)C(C)C6=O)c(O)cc(O)c3c(O)c2C(=O)C1C", "note": "(stereo unspecified)", "Potency": "inconclusive: 100 µM [inhibitor, single point]"}
    ]}
  ]
}
